Drawing on the supplement of paper PMC10681739, this text covers ETS1 binding intensity for 62 sequences.

± gives the standard deviation of the averaged measurements. The full ranking holds about 4,100 sequences; the median of “arbitrary fluorescence units” is about 780, and the highest 2% start at about 22,000. The list shows a part of the results.

In this assay the target is T1, ETS1 (UniProt P14921).
T1 sequence: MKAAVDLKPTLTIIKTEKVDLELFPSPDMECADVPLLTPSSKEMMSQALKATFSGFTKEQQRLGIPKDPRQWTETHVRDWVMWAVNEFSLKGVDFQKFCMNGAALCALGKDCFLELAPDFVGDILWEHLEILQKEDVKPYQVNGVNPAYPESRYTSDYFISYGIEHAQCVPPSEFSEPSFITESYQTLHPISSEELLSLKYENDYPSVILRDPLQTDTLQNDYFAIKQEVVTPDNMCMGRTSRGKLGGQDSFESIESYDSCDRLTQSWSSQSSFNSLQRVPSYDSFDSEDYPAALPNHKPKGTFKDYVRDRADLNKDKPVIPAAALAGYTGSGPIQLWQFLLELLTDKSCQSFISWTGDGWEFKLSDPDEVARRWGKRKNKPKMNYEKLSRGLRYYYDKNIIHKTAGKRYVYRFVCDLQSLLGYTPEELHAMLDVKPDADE
The assay can be described thus: ETS1 binding intensity (PBM fluorescence), ETS1 alone (arbitrary fluorescence units); higher = stronger binding. The note with it: ETS1 concentration 1 nM; RUNX1 concentration 0 nM. The method, boiled down:
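Double-stranded Agilent 4 × 180k arrays held 36-bp genomic probes whose RUNX1 partner site was mutated, and these were incubated with 1 nM full-length recombinant human ETS1 in the absence of RUNX1 under standard PBM protocols. Bound protein was labelled with anti-ETS1 antibody (Cell Signaling Technology 14069) plus an Alexa488-conjugated secondary and read on a GenePix 4400A, with four spots printed per sequence. Binding level is reported as raw spot fluorescence intensity summarised over replicate spots.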
Consider AGGCAAAAGTCACAGCCACACAGGATGGGGCCTCCC, for which the ETS1 binding intensity came out at 403.

TCCTAAAGCAGGAAATAGTGAGGCTACCGAAGTGTC: the ETS1 binding intensity is 3730.

CCCTGAGCACTTCCCCGTAAGGCTGGGGTGCACGGG displayed an ETS1 binding intensity of 645.

In turn, GTTCTCAGCTTCCTGTTCACAGAGAAACGTCAGACA registered an ETS1 binding intensity of 14100.

The sequence TATTCTTGCTTGTAGTTATTTGCATCCTGTTGCTCT came in with an ETS1 binding intensity of 1010.

Sequence TATTACTTCAGGAAGCCCAGGGGGAATCGCGCCCCG returned an ETS1 binding intensity of 478.

Take CTGCAGTGATGAGGCGAAAGGGATCCCGGAAAAGCC: the ETS1 binding intensity was 412.

Sequence CCGCGGCGGAACCCGAGGGCGGCGGCAGCGGATTCC gave an ETS1 binding intensity of 352.

GGGCTGGCTGCTACGGCAGCATTTCCTGACTTCTTC: the ETS1 binding intensity worked out at 1000.

The sequence TGGCACCCCCTTCGGCAGTCCCGGATCCGAGCAACC yielded an ETS1 binding intensity of 309.

In the case of ACACCACTAACAAGCACGGCCGCTTCCTGAACCTGT, the ETS1 binding intensity worked out at 595 ± 9.2.

As for CTGGGTCGTGGCACTGAGCCAGGAAGTCCCCTGGGT, the ETS1 binding intensity is 527.

In the case of GGTTTTGGTAGGAAGGAAAGTGCTTTTCATAGGAAG, the ETS1 binding intensity was 389.

Sequence CCCTGCCGGAACACGTGCGCCTCTGGTGACCCGGCA registered an ETS1 binding intensity of 534.

In turn, AGCCGGAGGCGGAAGGAGCAGCGCTACCGAAGCGTC returned an ETS1 binding intensity of 873.

Regarding AGTTGCCCGAAGGTCAACACCCACTTCCCTTCAAAC, the ETS1 binding intensity came out at 447.

ATTACATCCGGGCTCCGCGACACGCCCGAACCCCAA registered an ETS1 binding intensity of 25300.

As for ACTTCTCCGCCTGCAGGCCACTTCCGGCCCCTGTAA, the ETS1 binding intensity was found to be 15100.

In turn, TTTTATCCTTCCTTTTTTGTTCTTTGGGGTGGAGGT gave an ETS1 binding intensity of 1600.

In turn, CCTAGCCGACGCCCTCAATAGGCGGAAGTGGCCGGG returned an ETS1 binding intensity of 1390.

Sequence CAGTGACAGGAAGTGGTTCAGCTGTTGTTTAGGGCT gave an ETS1 binding intensity of 8150.

With CATTTGATGGGGTTGATTACTTCCTGCTTTAATTTT, the ETS1 binding intensity amounted to 3170.

The sequence GGACCTACAGCCGTGTGGGCAGCCTCAGGATGAGCT had an ETS1 binding intensity of 329.

Sequence CCTCAAGGGTAGGGGAAGTGCGCGGCGAGCGGCCTG displayed an ETS1 binding intensity of 451.

Turning to TTTCTGACTTCCTGTGTGCTTCAGAAACCCCAATGA, the ETS1 binding intensity worked out at 25100.

As to TGGCATTCTCCTTCCTGTCTCCTAACGACAGCCCAC, the ETS1 binding intensity was 6380.

For AACCCACCGGATGGAAGCTGCCACTCAGCCCCAGGA, the ETS1 binding intensity amounted to 2920.

Take CAGTGGCTAAGGATCCGGTGTTGCAGTGATACATGA: the ETS1 binding intensity was 1670 ± 76.

GGGTGGGCGTTCAAAGCGCACGCGGAAGGGCGAAAG showed an ETS1 binding intensity of 474.

The sequence GCACCAGAGGAAGCTGAGGAGGAGGTGCGCTGGCTG showed an ETS1 binding intensity of 428.

GGGAAGAGGCGCTTGGGCTGCGGAAGGACGGGGCGC showed an ETS1 binding intensity of 483.

The sequence GTCCTCTTTGGGGTTTCCATTTCCTTTGTGAAAGAG came in with an ETS1 binding intensity of 1630.

CCCCATCCCCCTCATAGGGACTTCCTCTTTATTTAC gave an ETS1 binding intensity of 2080.

The sequence TCTACATATCACACATGTGAACTTCCGCCCCGCCAC had an ETS1 binding intensity of 3020 ± 600.

For GCTTACACTTCCTCCCTGAACCCCTGCGATTTCACA, the ETS1 binding intensity amounted to 4590.

Sequence CCCTGGGGCCCCACTTCCTTGCCCACGAGAAAGGAC registered an ETS1 binding intensity of 2130.

TGCCCGAGGTTCGCGTCACACCCGGAAGCAGGGGCC returned an ETS1 binding intensity of 620.

Sequence GGTTTGTAGTTTCCCCTTACTGTCTCCACTTCCTTC came in with an ETS1 binding intensity of 1100.

Take AAAACGCGGAAATACGGTGGCGGCGGCCCTCGGGCA: the ETS1 binding intensity was 1430.

As to GTATTTCCTTGTCTTTCCTTCTGCCGCCGTAGGCCT, the ETS1 binding intensity was determined as 3820.

ATATAGAATCTTACGACAATCACTTCCTGAGTCTAT came in with an ETS1 binding intensity of 1850.

Turning to CGGGGCGCGATTCCCCCTGGGCTTCCTGAAGTAATA, the ETS1 binding intensity is 403.

Turning to ATATATCACCCCTTCCTTGCAAAACCCCAAGACCAA, the ETS1 binding intensity stood at 537.

CTTCAGGAAGGGCGAGGCCGGGCGCCGTGGCTCACG registered an ETS1 binding intensity of 357.

CTGGGGAGGAAGCCTGAGGTGTGTAGTTTTGTTAAC returned an ETS1 binding intensity of 528.

CTGTGAGGCGGAAGTGGCGGGCTCTGTGAGCGCAAG returned an ETS1 binding intensity of 4890.

Regarding CGGCTGGCAGGAAGTGGCCACTTGAACCCCAGATGC, the ETS1 binding intensity was determined as 9080.

TAAGCAGTGACCTTAAATTAATATAGGATGTCACTG registered an ETS1 binding intensity of 359.

Regarding GTTAACAAAACTACACACCTCAGGCTTCCTCCCCAG, the ETS1 binding intensity was 393.

Regarding CCCTTCCCCACCCCAGTCCGCTTCCTGCCCCTCCCG, the ETS1 binding intensity came out at 2270.

CCAGACCCGGCGGAACTACCGTGCCCTCAAGGCAGC came in with an ETS1 binding intensity of 477.

Regarding AGGCGCCCAATCCGGTGCATGGTCTCTGGCGCATGC, the ETS1 binding intensity was found to be 539.

In turn, CTGTGAGGTTGTCGTACTGGAAACTTCCTCCTAAAT yielded an ETS1 binding intensity of 500.

CTCTTAACTCGCTGTCCCGCCCCTTCCGGCCAGTGT registered an ETS1 binding intensity of 1270.

As for GACCTGCCTTCCGGCCTCCGTCACATGACAGCACAG, the ETS1 binding intensity is 7480.

On to CATCAAGTATTTCCTCACGCAAGCAACCCCATCCAT, for which the ETS1 binding intensity came out at 1070.

On to GGGAGCGCCGTCGCAGCTCCCACTTCCGCCCTCTGG, for which the ETS1 binding intensity stood at 3870.

For the sequence GTCCCCCGGAACCGTCTCCTCCCCCGTACGCGCCGC, the ETS1 binding intensity was 515.

The sequence CTCCCCAGCCCCAAACCCCTCCTTCCGGCTTTGCGC had an ETS1 binding intensity of 1940.

Consider GCCGGCCCCAAAGCAGCTCCGCCCCTTCCTCTTCCA, for which the ETS1 binding intensity turned out to be 331.

For the sequence CATGACATCCTCGCACAAGAAGGCGGGGGTGGGGGT, the ETS1 binding intensity was found to be 1030.

As to GCGCGGCTCAGGAAGCGACGCGATTCAGGGAGCGAA, the ETS1 binding intensity was determined as 607.
